Here are results for 106 compounds from PubChem BioAssay AID488969 (Vanderbilt High Throughput Screening Facility, 2010).

SMILES strings stand for the structures. In all, about 110,000 compounds were measured (“z-score”: median about -0.1, highest 2% from about 2 on). The list shows a part of the results. The source made the active and inactive calls.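 How the source made its calls: active means z-score in the third read window above 3 or below -3; inactive means the rest.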

The test has as its target Metabotropic glutamate receptor 8 (Rattus norvegicus) (UniProt P70579). Put plainly: rat mGluR8 modulators via GIRK flux, primary screen, cell-based, thallium flux, HTS (AID 488969). Conditions: HEK293 rat mGluR8, GIRK (G protein-gated inwardly rectifying potassium channel) thallium flux, FluoZin2; at 10 µM; stronger effect = higher value; submaximal glutamate (EC20) added with thallium.
UniProt P70579, sequence (P70579 whole entry, looked up): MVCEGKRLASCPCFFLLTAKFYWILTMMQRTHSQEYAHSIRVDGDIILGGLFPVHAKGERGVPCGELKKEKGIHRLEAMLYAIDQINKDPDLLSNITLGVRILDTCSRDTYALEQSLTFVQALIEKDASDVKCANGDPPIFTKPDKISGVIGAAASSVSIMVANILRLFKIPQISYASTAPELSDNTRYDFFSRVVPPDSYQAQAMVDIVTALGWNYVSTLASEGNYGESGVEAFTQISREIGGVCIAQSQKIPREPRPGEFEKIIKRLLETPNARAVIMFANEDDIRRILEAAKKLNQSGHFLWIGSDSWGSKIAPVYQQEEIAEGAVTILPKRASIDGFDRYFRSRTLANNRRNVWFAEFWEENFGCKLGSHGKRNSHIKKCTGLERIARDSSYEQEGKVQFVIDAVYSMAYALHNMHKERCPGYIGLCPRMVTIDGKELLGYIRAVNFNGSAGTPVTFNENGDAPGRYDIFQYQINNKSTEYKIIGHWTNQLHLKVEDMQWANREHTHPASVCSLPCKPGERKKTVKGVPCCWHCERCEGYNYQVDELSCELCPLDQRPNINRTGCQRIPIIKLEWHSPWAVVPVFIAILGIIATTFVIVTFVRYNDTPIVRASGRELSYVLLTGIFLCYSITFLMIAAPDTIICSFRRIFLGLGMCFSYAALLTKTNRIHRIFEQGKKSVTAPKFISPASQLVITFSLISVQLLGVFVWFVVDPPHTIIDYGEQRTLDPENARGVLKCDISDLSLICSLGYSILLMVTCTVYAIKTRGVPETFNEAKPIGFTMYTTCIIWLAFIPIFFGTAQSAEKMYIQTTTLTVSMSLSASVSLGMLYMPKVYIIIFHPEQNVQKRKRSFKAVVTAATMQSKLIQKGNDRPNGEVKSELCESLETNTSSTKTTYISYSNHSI
For the compound `COc1ccccc1C(c1nnnn1C(C)(C)C)N1CCCc2ccccc21` (stereo unspecified), the z-score is -0.475.
The figure for `CCOc1ccc(C(=O)Nc2cccc(C(=O)O)c2C)cc1Cl` is -0.271; for `Cc1cc(C)cc(N(CC(=O)Nc2c(C)n(C)n(-c3ccccc3)c2=O)S(C)(=O)=O)c1` it is -0.0377; for `CN(C)S(=O)(=O)c1cccc(C(=O)OCC(=O)c2ccc3c(c2)NC(=O)CO3)c1` it is -0.177.
With `CCC(=O)OC1=C2C(=Nc3c(c(=O)n(C)c(=O)n3C)C2c2ccccc2)c2ccccc21` (stereo unspecified) the figure was 1.18; with `CCOc1ccc(NC(=O)c2ccc3snnc3c2)cc1`, -0.126.
The figure for `CCOc1ccc(NC2=C(OC)C(=O)c3ccccc3C2=O)cc1` is -0.209.
As to `CCOC(=O)C1C(=O)NC(c2ccccc2)=NC1c1ccc(C(C)C)cc1` (stereo unspecified), the z-score amounted to 0.171.
`Cc1ccc(S(=O)(=O)/N=C(\N)Nc2nc(C)c3cc(C)c(C)cc3n2)cc1` registered a z-score of -0.266.
The figure for `Cc1ccc(Cn2nnc3c(=O)[nH]c(C4CCN(S(=O)(=O)c5ccccc5)CC4)nc32)cc1` is 0.177; for `O=C(CNC(=O)c1cccc(Br)c1)NCCc1nc2ccccc2[nH]1` it is 0.436; for `Cc1ccccc1Oc1cc(-n2ncc(Cl)c(Cl)c2=O)ncn1` it is -1.13.
The figure for `Cn1c(=O)n(C)c2cc([N+](=O)[O-])c(N3CCN(C(=O)c4ccc(Cl)cc4)CC3)cc21` is 0.056; for `Cc1n[nH]c(=O)nc1Nc1ccc(O)cc1` it is 0.142.
In turn, `CCCc1cc2c(=O)c(-c3ccccn3)coc2cc1OC` showed a z-score of 1.67.
With `Cc1cccc(CCNS(=O)(=O)c2ccc3c(c2)n(C)c(=O)c(=O)n3C)c1` the figure was -0.409; with `O=C(Cc1ccc(Cl)cc1)Nc1ccc2oc(-c3ccncc3)nc2c1`, 0.0314; with `CCOC(=O)CN1NC2(CCCCC2)NC1=S`, 0.284.
With `COc1ccc(OC)c(C2=NOC(C(=O)Nc3cccnc3)C2)c1` (stereo unspecified) the figure was -0.238; with `Cc1ccc(OCC(=O)O/N=C(\N)Cc2ccc(Cl)cc2)cc1`, -0.397.
The figure for `O=C(CSc1nnnn1-c1ccccc1)Nc1nsc(-c2ccccc2)n1` is -1.31; for `O=C(NCCCN1CCN(CCCNC(=O)c2cc([N+](=O)[O-])ccc2Cl)CC1)c1cc([N+](=O)[O-])ccc1Cl` it is -0.171; for `CC(C)n1c(SCc2ccccc2F)nc2c1c(=O)n(C)c(=O)n2C` it is -0.164.
Turning to `C=CCc1ccc(OCCOc2cccc(/C=N/n3cnnc3)c2)c(OC)c1`, the z-score is -0.025.
Compound `Cn1c(=O)c2c(nc(N3CCOCC3)n2CCNC2=NCCC2)n(C)c1=O` had a z-score of -0.452.
The figure for `COC(=O)CCN(C1CCCCC1)S(=O)(=O)c1ccc(S(=O)(=O)NC2CCCCC2)cc1` is 0.178.
With `CCCNC(=O)COC(=O)c1cc(SC)ccc1Cl` the figure was 0.561; with `O=C(Cc1ccccc1)NCCS(=O)c1ccc(Cl)cc1` (stereo unspecified), 0.00521; with `c1ccc(COn2c(-c3ccccc3)nc3c2CCc2nonc2-3)cc1`, 0.214.
With `COc1ccc2[nH]c3nc(SCC(=O)Nc4ccc5c(c4)OCO5)nnc3c2c1` the figure was -0.184; with `COc1ccc(CNCCC(c2ccc(F)cc2)c2ccc(OC)cc2)cc1` (stereo unspecified), active: 3.72.
For the compound `COc1ccc(OCCNS(=O)(=O)Cc2ccccc2)cc1`, the z-score was -0.225.
The figure for `O=c1[nH]c(CN(CCc2ccccc2)S(=O)(=O)c2ccc(Cl)cc2)nc2ccccc12` is -0.0934; for `O=C(NCC1CCCO1)c1c(O)c2c([nH]c1=O)CCCC2` (stereo unspecified) it is 2.44; for `Cc1ccc2nc(N/N=C/c3ccccc3F)nc(-c3ccccc3)c2c1` it is -0.357.
With `CCCCOc1ccc(Cc2c(Cl)nc(SC)nc2N2CCOCC2)cc1` the figure was 0.0392; with `S=C(Nc1ccccc1)Nn1cnnc1`, -0.516; with `CC(=O)N1N=C(c2ccccc2)CC1c1cn(Cc2ccccc2)c2ccccc12` (stereo unspecified), -0.369.
Take `CCOC(=O)c1oc2ccc(CNCCO)c(Cl)c2c1C`: the z-score was determined as 0.264.
The figure for `CCOC(=O)c1sc(NC(=O)CSc2nnc(-c3ccc(OC)cc3)n2CCOC)nc1C` is -0.429.
With `COc1ccc(OC)c(-c2cc(C(=O)Nc3sc4c(c3C#N)CCC(C)C4)c3ccccc3n2)c1` (stereo unspecified) the figure was -0.306.
With `Cc1cc(C)n(-c2ccc(C(=O)Nc3ccc4c(c3)OCCO4)cc2)n1` the figure was -0.64; with `CC(=O)N1CCC(=NNS(=O)(=O)c2ccc(C)c([N+](=O)[O-])c2)CC1`, -0.189; with `Cc1ccccc1OCCSc1nnc(-c2cccnc2)n1N`, -0.233.
As for `O=[N+]([O-])c1ccc(N2CCN(CCO)CC2)c2ncccc12`, the z-score was -0.0366.
The figure for `CN(C)c1ccc(-n2cccc2/C=C2/SC(=Nc3ccc(F)cc3)NC2=O)cc1` is -0.196; for `Cc1[nH]nc2c1C(c1ccsc1)C(C#N)=C(N)O2` (stereo unspecified) it is -0.13.
The figure for `O=C(O)Cc1sc(N/N=C\c2ccccc2)nc1-c1ccccc1` is -0.231; for `CC(C)Oc1ccc(Cc2c(O)nc(NCCCN(C)C)[nH]c2=O)cc1` it is 0.195; for `Cc1ccc(Cl)cc1NC(=O)COC(=O)CC1CC2CCC1C2` (stereo unspecified) it is -0.0633.
The figure for `COC(=O)c1cccc(NS(=O)(=O)c2ccc(OC)cc2)c1C` is -0.504.
In the case of `C=CCOc1c(Br)cc(C2C3=C(CCCC3=O)N(C)C3=C2C(=O)CCC3)cc1OCC`, the z-score was -0.728.
Take `Cc1cc(C)n(CC(=O)N/N=C/c2cc([N+](=O)[O-])ccc2O)n1`: the z-score is -0.556.
With `CCSc1ncccc1-c1nc2ccccc2[nH]1` the figure was 1.12; with `O=C(CN1C(=O)c2ccccc2C1=O)Nc1ccc(-c2nc3ccccc3o2)cc1`, 0.616.
In the case of `CC1Cc2ccccc2N1C(=O)COC(=O)c1c2c(nc3ccccc13)CCCCC2` (stereo unspecified), the z-score is -0.164.
For `COC(=O)CCC(=O)Nc1cccc2ccccc12`, the z-score is 0.0119.
The figure for `CCOC(=O)CSc1nncc2ccc(OC)c(OC)c12` is 0.0626; for `O=C(CCCOc1ccccc1)Nc1nncs1` it is -0.122.
The figure for `COc1cccc(CNC(=O)C(=O)NCCc2ccc(OC)c(OC)c2)c1` is -0.206.
`CS(=O)(=O)N(CC(=O)NCc1ccco1)c1ccc2c(c1)OCO2` registered a z-score of 0.526.
The figure for `Cc1cccc(-n2c(SCC(N)=O)nc3c(c2=O)C2(CCCC2)Cc2ccccc2-3)c1` is -0.351.
With `CCN(CC)c1ccc(/C=N/OCC(=O)N2CCCc3ccccc32)cc1` the figure was -0.492; with `CC(=O)Nc1nonc1-c1nc2ccccc2n1N(C(C)=O)C(C)=O`, -2.35.
For `Clc1c(CSc2nc3ccccc3o2)nc2sccn12`, the z-score turned out to be 1.14.
The figure for `Cc1[nH]c2ccccc2c1C(c1ccccn1)N1CCC(C)CC1` (stereo unspecified) is 0.225; for `CCNS(=O)(=O)c1ccc(NS(C)(=O)=O)cc1` it is 0.152.
`Cc1ccccc1NC(=O)N(C(C)C)C(C)C` had a z-score of 0.0628.
With `O=C(Nc1cccc2ccccc12)/C(=C/c1cccc([N+](=O)[O-])c1)NC(=O)c1cccs1` the figure was 0.171; with `O=C(NC12CC3CC(CC(C3)C1)C2)c1ccc(-c2cccc(Cl)c2)o1`, -0.167; with `COc1ccc(C(=O)/C=C/c2ccccc2F)c(OC(=O)c2ccc([N+](=O)[O-])cc2)c1`, 0.0301.
With `O=C1NCCCC2c3c(cc(Br)c(O)c3Br)OC12N1CCOCC1` (stereo unspecified) the figure was -0.385; with `c1ccc(COc2ccc(-c3csnn3)cc2)cc1`, -0.293.
The compound `COc1ccc(S(=O)(=O)NCc2ccc(C(=O)O)cc2)cc1` gave a z-score of -0.0701.
With `CC1=C(C(=O)OC(C)C)C(c2cncc(-c3ccc(F)cc3)c2)C(C#N)=C(N)O1` (stereo unspecified) the figure was -0.367; with `CN=c1scc(C)n1/N=C/c1ccc(O)cc1`, 0.233.
The figure for `CN(Cc1ccccc1)S(=O)(=O)c1ccc(Cl)c(C(=O)NCc2ccc3c(c2)OCO3)c1` is -0.224.
With `O=C(Nc1cccnc1)c1cnn2c(C(F)F)cc(C3CC3)nc12` the figure was -0.0902; with `Cc1ccc(NC2c3ncccc3C(=O)N2C2CCCCC2)cc1C` (stereo unspecified), -0.606; with `CCOCCn1c(N2CCN(c3ccc(OC)cc3)CC2)nc2c1c(=O)[nH]c(=O)n2C`, -0.282.
`Cc1cccc(N2CCN(S(=O)(=O)c3ccc4c(c3)n(C)c(=O)c(=O)n4C)CC2C)c1` (stereo unspecified): the z-score was -0.314.
With `CN1CCc2c(sc3c2C(=O)NC(c2ccccn2)N3)C1` (stereo unspecified) the figure was -0.0508; with `COc1ccc(/C=C/C(=O)OCC(=O)Nc2ccc(C)cc2)cc1S(=O)(=O)N1CCOCC1`, 0.875.
The figure for `COc1ccc(OCC(=O)N2CCN(S(=O)(=O)c3ccc(Cl)cc3)CC2)cc1` is 0.211.
With `C=CCn1c(SCc2c(C)noc2C)nc2sc3c(c2c1=O)CCC(C)C3` (stereo unspecified) the figure was 2.65; with `COCCn1nnnc1CN(CCc1ccc(OC)c(OC)c1)Cc1cc2ccc(C)cc2[nH]c1=O`, -0.0984; with `COC(=O)c1cc(=O)n2c(-c3ccc(OC)cc3)csc2n1`, 0.0497.
Regarding `CC1=Nc2ccccc2/C1=C/c1sc(=N)n(-c2nccs2)c1O`, the z-score came out at 0.985.
The compound `Cc1ccc(C(=O)C(C(=O)/C=C/c2ccccc2)=C2SCCCS2)cc1` displayed a z-score of 0.0319.
The figure for `Cc1ccc(S(=O)(=O)N2CCN(C(C)C(=O)N3CCCc4ccccc43)CC2)cc1` (stereo unspecified) is -0.161; for `CC(C)(C)NC(=O)CSc1nccn1Cc1ccccc1` it is 0.488.
The figure for `CCC(C)NC(=O)C1CCN(c2nc(C)cc(C)n2)CC1` (stereo unspecified) is 0.413; for `CCN1CCN(c2ncc3c(n2)CC(c2cc(OC)c(OC)c(OC)c2)CC3=O)CC1` (stereo unspecified) it is -0.0538; for `CCCCCn1c(NC(=O)c2ccco2)c(S(=O)(=O)c2ccc(C)cc2)c2nc3ccccc3nc21` it is 0.0549.
`CC(C)(C)n1nc2c(c1NC(=O)COc1ccc3ccccc3c1)CS(=O)(=O)C2` returned a z-score of -0.24.
`C/C(N)=C(/C#N)C(=O)CSc1nc2cc(Cl)ccc2c(=O)n1-c1ccc(C)cc1` had a z-score of 2.69.
`Clc1ccc(OCCOCCOc2cccc3cccnc23)c(Br)c1`: the z-score turned out to be 0.0446.
In turn, `O=C(CN1C(=O)c2ccccc2C1=O)Nc1cccc2cccnc12` gave a z-score of -0.275.
With `CCc1nnc(NC(=O)CSc2ncnc3c2cnn3-c2ccc(OC)cc2)s1` the figure was 0.126.
With `Cc1ccc(S(=O)(=O)N2CCN(C(=O)N(C)C)CC2)cc1C` the figure was -0.0584; with `c1ccc(CC2CCN(Cc3nc(-c4ccccc4)no3)CC2)cc1`, 0.83; with `CCOC(=O)CSC1=Nc2ccccc2C2=NC(CC(=O)NCc3ccc4c(c3)OCO4)C(=O)N12` (stereo unspecified), -0.235.
The figure for `COc1ccc(Cn2nnnc2C(c2ccccc2Cl)N2CCN(C3CCCC3)CC2)cc1` (stereo unspecified) is 1.79; for `COc1cccc(OC)c1C(=O)NC(C)c1ccccc1` (stereo unspecified) it is -0.155.
For `COc1ccccc1OCc1nc2ccccc2[nH]1`, the z-score is -0.305.
With `CC(C)C(c1nnnn1Cc1ccco1)N1CCN(C2CCCC2)CC1` (stereo unspecified) the figure was -0.255.
